What was measured:
B lymphoma tissue = assay: Immunohistochemistry on cryopreserved lymph node biopsies; format: binding, human; parameters: key: Increasing numbers of + indicate stronger staining.; ++: Increasing numbers of + indicate stronger staining.; +++: Increasing numbers of + indicate stronger staining
Description: Cryopreserved lymph node biopsies of patients with Anaplastic Large Cell B lymphoma (one patient), Centroblastic/Centrocytic B non-Hodgkin lymphoma (three patients), and B cell chronic lymphocytic leukaemia (one patient) were obtained from the Department of Pathology at Lund University (Lund, Sweden). Eight-micrometer sections of cryo-preserved tissue were fixed in acetone for 10 min at 4° C. Endogenous biotin-binding activity was blocked by sequential treatment with Avidin and Biotin (Avidin/Biotin blocking kit, Invitrogen) for 20 min each.
Tissues were incubated with 5 μg/ml control scFv or B11 scFv for 1 h. Following washing, sections were incubated with biotin-conjugated mouse anti-His mAb (R&D Systems) for 30 min. scFv binding was detected following treatment with ABC Complex/HRP reagent (Dako Cytomation) for 30 min, and subsequent incubation with DAB for 5 min.
Sections were photographed using a Leica DC 300F digital camera mounted on top of a Leica DMR light/fluorescence microscope.

Raji B lymphoma cells = assay: Direct cell cytotoxicity in the absence of cross-linking reagents, 24 hours; format: cell-based, human; conditions: absence of cross-linking reagents, 20, 6.7 or 2.2 μg/ml
Description: Cells were harvested and viability was determined as the percentage of Annexin V and Propidium Iodide double negative cells.

PC-3 = assay: IgG binding to carcinoma cell line, flow cytometry MFI; parameters: species or system human; conditions: PC-3 prostate carcinoma cells
Source text: The antigen distribution of human antibody targeted antigens, mainly for B11, on different carcinoma cell lines was investigated. Cells (MCF-7 and MDA MB 435S breast carcinoma, JAR and JEG-3 chorio-carcinoma, A549 lung carcinoma, TCC-SUP urinary bladder carcinoma, MDA MB 435 melanoma, HPAC, PANC-1 and BxPC-3 pancreatic carcinoma, PC-3 and DU145 prostate carcinoma, LS174 T, CaCo2, and Lovo colorectal carcinoma, and THP-1 monocytic leukaemia cells), were washed in PBS, and resuspended at 4×10^6 cells/ml in Complete Medium (200,000 cells/50 […] sample). […] Cells were incubated with either of the antibodies for 1 hour on ice, washed by resuspension in PBS/BSA 0.5%, centrifuged at 1200 rpm for 5 min, and complete aspiration of the supernatants was undertaken. Cells were incubated with PE-conjugated Goat F(ab′)2 anti-Human IgG (Caltag Laboratories, Cat no: H10104), diluted 1/50 in PBS/BSA 0.5%, for 30 min, on ice. Following resuspension of in 300 μl PBS/BSA 0.5%, cells were analysed for IgG binding using a FACScan instrument.

SP-53 = assay: Apoptosis induction by cross-linked IgG (Annexin V/PI); format: cell-based, human; conditions: viable cells after 6 hour incubation, crosslinked, compared to control FITC-8 IgG1
Description: (§1) 2×10^5 B lymphoma cells (Raji or Ramos) or Jurkat T cells were incubated with serially diluted and detoxified scFv's in culture medium for 1 h on ice.
(§2) When whole IgGs were used for apoptosis induction, cross-linking reagent was replaced by goat Fab′2 anti-human Fc γ antibody (Jackson ImmunoResearch) with minimal cross-reactivity with non-IgG antibody isotypes (to avoid unspecific cross-linking of endogenous B lymphoma associated surface immunoglobulins) and incubated, as described above, for 6 h.
(§3) Apoptotic cells were, unless otherwise stated, detected by combined staining with Annexin V Alexa Fluor 488 (AV) and Propidium Iodide (PI) (both from Molecular Probes, Invitrogen) and subsequent flow-cytometric analysis, Cells were defined as viable (AV−/PI−), early apoptotic (AV+/PI−) or late apoptotic/necrotic (AV+/PI+). AV and PI signals were recorded in the FL1 and FL2 or FL3 channels (as indicated in the text), respectively, using a FACSCalibur instrument (BD Biosciences).
(§4) • ^aApoptosis Induction; determined by percentage of viable cells after 6 hour incubation with any of the human antibodies, crosslinked with Goat anti-Human (gamma) Fc specific antibody; −, viability not affected; +, 95-80%; ++, 79-60%; +++, 59-40% viable cells compared to control (human FITC-8 IgG1). […] The cell line dependent MFI value of control human FITC-8 IgG antibody was subtracted from the MFI of each human antibody.

SC-1 = assay: as above; format: cell-based, human; conditions: viable cells after 6 hour incubation, crosslinked, compared to control FITC-8 IgG1
Description: as §1, §2, §3, §4

Rec-1 = assay: as above; format: cell-based, human; conditions: viable cells after 6 hour incubation, crosslinked, compared to control FITC-8 IgG1
Description: as §1, §2, §3, §4

JVM-2 = assay: as above; format: cell-based, human; conditions: viable cells after 6 hour incubation, crosslinked, compared to control FITC-8 IgG1
Description: as §1, §2, §3, §4

CL-01 = assay: as above; format: cell-based, human; conditions: viable cells after 6 hour incubation, crosslinked, compared to control FITC-8 IgG1
Description: as §1, §2, §3, §4

RL = assay: as above; format: cell-based, human; conditions: viable cells after 6 hour incubation, crosslinked, compared to control FITC-8 IgG1
Description: as §1, §2, §3, §4

Reh/KM-3 = assay: as above; format: cell-based, human; conditions: viable cells after 6 hour incubation, crosslinked, compared to control FITC-8 IgG1
Description: as §1, §2, §3, §4

Jeko-1 = assay: as above; format: cell-based, human; conditions: viable cells after 6 hour incubation, crosslinked, compared to control FITC-8 IgG1
Description: as §1, §2, §3, §4

NCEB-1 = assay: as above; format: cell-based, human; conditions: viable cells after 6 hour incubation, crosslinked, compared to control FITC-8 IgG1
Description: as §1, §2, §3, §4

DOHH-2 = assay: as above; format: cell-based, human; conditions: viable cells after 6 hour incubation, crosslinked, compared to control FITC-8 IgG1
Description: as §1, §2, §3, §4

Granta 519 = assay: as above; format: cell-based, human; conditions: viable cells after 6 hour incubation, crosslinked, compared to control FITC-8 IgG1
Description: as §1, §2, §3, §4

BJAB = assay: as above; format: cell-based, human; conditions: viable cells after 6 hour incubation, crosslinked, compared to control FITC-8 IgG1
Description: as §1, §2, §3, §4

B1: B1: fully human IgG1 antibody specific for HLA-DR/DP; VH and VL sequences of FIG. 9 (SEQ ID NOs. 2 and 4) (antibody, listed as Homo sapiens, V domains shown)
VH: [about 100 residues left out here]DGLLPLDYWGQGTLVTVSS
VL: QSVLTQPPSASGTPGQRVTISCSGGSSNIGGNAVNWYQQLPGTAPKLLIYENNKRPSGVPDRFSGSKSGTSASLAISGLRSEDEADYYCSSYAVSNNFEVLFGGGTKLTVLG
B lymphoma tissue; Patient A, B-CLL (low malignant non-Hodgkin Lymphoma)
  Staining of B lymphoma tissue: ++
B lymphoma tissue; Patient B, Anaplastic Large Cell B Cell Lymphoma
  Staining of B lymphoma tissue: +++
B lymphoma tissue; Patient C, Centroblastic-Centrocytic B non-Hodgkin Lymphoma
  Staining of B lymphoma tissue: ++
B lymphoma tissue; Patient D, B-CLL/B-PLL
  Staining of B lymphoma tissue: +++
B lymphoma tissue; Patient E, Centroblastic B non-Hodgkin Lymphoma
  Staining of B lymphoma tissue: +++
B lymphoma tissue; Patient F, Centroblastic-Centrocytic B non-Hodgkin Lymphoma
  Staining of B lymphoma tissue: +++
Raji B lymphoma cells
  direct cell cytotoxicity: induce direct cell cytotoxicity
PC-3
  binding: did not bind
SP-53
  Apoptosis Induction: ++ (79-60%)
SC-1
  Apoptosis Induction: + (95-80%)
Rec-1
  Apoptosis Induction: −
JVM-2
  Apoptosis Induction: + (95-80%)
CL-01
  Apoptosis Induction: +++ (59-40% viable cells compared to control (human FITC-8 IgG1))
RL
  Apoptosis Induction: −
Reh/KM-3
  Apoptosis Induction: +++ (59-40% viable cells compared to control (human FITC-8 IgG1))
Jeko-1
  Apoptosis Induction: +++ (59-40% viable cells compared to control (human FITC-8 IgG1))
NCEB-1
  Apoptosis Induction: + (95-80%)
DOHH-2
  Apoptosis Induction: −
Granta 519
  Apoptosis Induction: ++ (79-60%)
BJAB
  Apoptosis Induction: + (95-80%)

— patent publication US9803013B2, “Biological materials and uses thereof” (BioInvent International AB, priority 2005, dated 2017)
